The values below come from patent publication US20250270341A1 (Alector, published 2025).

Assay [1] addresses T1, Cyno CD98hc ECD Avi-His (cynomolgus macaque, UniProt P08195 105-529 (human entry)).
T1 construct: biotinylated on the Avi tag where captured on streptavidin; also called Cyno CD98-AVI-His; Cyno CD98hc-AVI-His
T1 chain: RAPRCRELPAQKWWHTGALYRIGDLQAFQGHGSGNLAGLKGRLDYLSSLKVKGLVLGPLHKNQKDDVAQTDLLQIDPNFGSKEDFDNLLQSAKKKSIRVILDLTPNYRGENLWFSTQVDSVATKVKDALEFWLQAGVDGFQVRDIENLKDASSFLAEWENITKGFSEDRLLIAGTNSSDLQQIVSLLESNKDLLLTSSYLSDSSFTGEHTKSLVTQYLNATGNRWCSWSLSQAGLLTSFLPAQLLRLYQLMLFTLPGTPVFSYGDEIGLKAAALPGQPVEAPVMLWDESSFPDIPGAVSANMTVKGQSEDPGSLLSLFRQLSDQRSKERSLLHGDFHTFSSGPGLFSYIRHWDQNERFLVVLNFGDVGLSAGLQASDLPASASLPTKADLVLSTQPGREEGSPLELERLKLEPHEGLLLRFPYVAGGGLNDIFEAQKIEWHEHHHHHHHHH
The assay can be described thus: ELISA, 1 ug/ml. A general note: In an ELISA, binding on a coated surface is turned into a signal by an enzyme label.

Assay [2] concerns the target T2, huCD98hc ECD Avi-His (human, UniProt P08195 105-529).
T2 construct: biotinylated on the Avi tag where captured on streptavidin; also called Human CD98-AVI-His; Human CD98hc-AVI-His
T2 sequence: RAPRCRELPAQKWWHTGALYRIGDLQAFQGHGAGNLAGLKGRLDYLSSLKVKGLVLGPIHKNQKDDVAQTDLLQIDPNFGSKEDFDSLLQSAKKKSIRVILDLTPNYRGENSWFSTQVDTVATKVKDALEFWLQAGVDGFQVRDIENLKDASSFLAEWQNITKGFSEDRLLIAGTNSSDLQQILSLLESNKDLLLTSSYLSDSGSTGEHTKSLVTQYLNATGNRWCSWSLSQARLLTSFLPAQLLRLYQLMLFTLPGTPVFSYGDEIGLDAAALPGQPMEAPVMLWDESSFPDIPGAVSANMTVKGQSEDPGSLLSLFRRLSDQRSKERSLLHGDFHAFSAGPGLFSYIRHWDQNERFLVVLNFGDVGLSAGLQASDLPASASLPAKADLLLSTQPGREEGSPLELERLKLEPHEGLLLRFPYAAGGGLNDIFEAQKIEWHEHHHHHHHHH
The assay can be described thus: ELISA, 1 ug/ml.

B1: CD98hc.04.054 (2+1 bispecific antibody) (bispecific antibody)
heavy 1: EVRLLESGGGLVQPGGSLRLSCAASGFTFSNYAMGWVRQAPGKGLEWVSAISGSGGSTYYADSVKGRFTTSRDDSKNALYLQMNSLRAEDTAVYYCARGGPGWYAADVWGQGTTVTVSSASTKGPSVFPLAPSSKSTSGGTAALGCLVKDYFPEPVTVSWNSGALTSGVHTFPAVLQSSGLYSLSSVVTVPSSSLGTQTYICNVNHKPSNTKVDKKV[here human IgG1 Fc with changes without letters]GGGGSGGGGSGGGGSQVQLQQSAAELARPGASVKMSCETSGYTFTRYTMNWVKQRPGQGLDWIGYINPSSGYAEYNQKFRGKTTLTADKSSSTAYIQLNSLTSEDSAVYYCVRYDGNYVYWGQGTTLTVSSGGSEGKSSGSGSESKSTGGSDIVMTQSQKFMSTSFGDRVDITCKASQNVGSAVAWYQQKPGQSPKLLIYSASNRYTGVPDRFTGSGSGTDFTLTINNMQSADLADYFCQQYNFYPLTFGAGTKLDLK
heavy 2: EVRLLESGGGLVQPGGSLRLSCAASGFTFSNYAMGWVRQAPGKGLEWVSAISGSGGSTYYADSVKGRFTTSRDDSKNALYLQMNSLRAEDTAVYYCARGGPGWYAADVWGQGTTVTVSS[here human IgG1 constant region with changes without letters]
light: DIQMTQSPSSLSASVGDRVTITCRASQSISSYLNWYQQKPGKAPKLLIYAASSLQSGVPSRFSGSGSGTDFTLTISSLQPEDFATYYCQQADLPAFAFGGGTKVEIKRTVAAPSVFIFPPSDEQLKSGTASVVCLLNNFYPREAKVQWKVDNALQSGNSQESVTEQDSKDSTYSLSSTLTLSKADYEKHKVYACEVTHQGLSSPVTKSFNRGEC
Turning to B1, the “ELISA fold-change relative to isotype hIgG” value in assay [1] came to 30.7; in assay [2], 25.

B2: CD98hc.04.063 (2+1 bispecific antibody) (bispecific antibody)
heavy 1: EVRLLESGGGLVQPGGSLRLSCAASGFTFSNYAMGWVRQAPGKGLEWVSAISGSGGSTYYADSVKGRFTTSRDDSKNALYLQMNSLRAEDTAVYYCARGGPGWYAADVWGQGTTVTVSSASTKGPSVFPLAPSSKSTSGGTAALGCLVKDYFPEPVTVSWNSGALTSGVHTFPAVLQSSGLYSLSSVVTVPSSSLGTQTYICNVNHKPSNTKVDKKV[here human IgG1 Fc with changes without letters]GGGGSGGGGSGGGGSEVKLEESGGGLVQPGGSMILSCVASGFTFSNSWMNWVRQSPEKGLEWVAEIRLRSNNYATHYAESVKGRFTISRDDSKSTVYLQMNNLRAEDTGIYYCSRGDPGAYWGQGTLVTVSAGGSEGKSSGSGSESKSTGGSDIQMTQSSSYLSVSLGNRVTITCKASDHIKNWLAWFQQKPGNAPRLLISGATILETGVPSRFSGSGSGKDYTLSITSLQTEDVATYYCQQYWSTPYTFGGGTKLEIK
heavy 2: EVRLLESGGGLVQPGGSLRLSCAASGFTFSNYAMGWVRQAPGKGLEWVSAISGSGGSTYYADSVKGRFTTSRDDSKNALYLQMNSLRAEDTAVYYCARGGPGWYAADVWGQGTTVTVSS[here human IgG1 constant region with changes without letters]
light: DIQMTQSPSSLSASVGDRVTITCRASQSISSYLNWYQQKPGKAPKLLIYAASSLQSGVPSRFSGSGSGTDFTLTISSLQPEDFATYYCQQADLPAFAFGGGTKVEIKRTVAAPSVFIFPPSDEQLKSGTASVVCLLNNFYPREAKVQWKVDNALQSGNSQESVTEQDSKDSTYSLSSTLTLSKADYEKHKVYACEVTHQGLSSPVTKSFNRGEC
B2: the “ELISA fold-change relative to isotype hIgG” value in assay [1] stood at 9.1; in assay [2], 11.1.

B3: CD98hc.04.062 (2+1 bispecific antibody) (bispecific antibody)
heavy 1: EVRLLESGGGLVQPGGSLRLSCAASGFTFSNYAMGWVRQAPGKGLEWVSAISGSGGSTYYADSVKGRFTTSRDDSKNALYLQMNSLRAEDTAVYYCARGGPGWYAADVWGQGTTVTVSSASTKGPSVFPLAPSSKSTSGGTAALGCLVKDYFPEPVTVSWNSGALTSGVHTFPAVLQSSGLYSLSSVVTVPSSSLGTQTYICNVNHKPSNTKVDKKV[here human IgG1 Fc with changes without letters]GGGGSGGGGSGGGGSEVQLVESGGDLVKPGGSLKLSCTASRFAFSTYDMSWVRQTPEKRLEWVAYISSGGGSTYFPDTVKGRFTISRDNAKNTLYLQMSSLKSEDTAMYYCARQDGHYPWFPYWGQGTLVTVSAGGSEGKSSGSGSESKSTGGSDIVMSQSPSSLAVSVGEKVTMSCKSSQSLLYSGNQKTYLAWYQQKPGQSPKPLIYWASTRESGIPDRFTGSGSGTDFTLTISSVKAEDLAVYYCQQYYSYPPTFGAGTKLELK
heavy 2: EVRLLESGGGLVQPGGSLRLSCAASGFTFSNYAMGWVRQAPGKGLEWVSAISGSGGSTYYADSVKGRFTTSRDDSKNALYLQMNSLRAEDTAVYYCARGGPGWYAADVWGQGTTVTVSS[here human IgG1 constant region with changes without letters]
light: DIQMTQSPSSLSASVGDRVTITCRASQSISSYLNWYQQKPGKAPKLLIYAASSLQSGVPSRFSGSGSGTDFTLTISSLQPEDFATYYCQQADLPAFAFGGGTKVEIKRTVAAPSVFIFPPSDEQLKSGTASVVCLLNNFYPREAKVQWKVDNALQSGNSQESVTEQDSKDSTYSLSSTLTLSKADYEKHKVYACEVTHQGLSSPVTKSFNRGEC
Turning to B3, the “ELISA fold-change relative to isotype hIgG” value came to 23.4 in assay [1] and 26 in assay [2].

B4: CD98hc.04.064 (2+1 bispecific antibody) (bispecific antibody)
heavy 1: EVRLLESGGGLVQPGGSLRLSCAASGFTFSNYAMGWVRQAPGKGLEWVSAISGSGGSTYYADSVKGRFTTSRDDSKNALYLQMNSLRAEDTAVYYCARGGPGWYAADVWGQGTTVTVSSASTKGPSVFPLAPSSKSTSGGTAALGCLVKDYFPEPVTVSWNSGALTSGVHTFPAVLQSSGLYSLSSVVTVPSSSLGTQTYICNVNHKPSNTKVDKKV[here human IgG1 Fc with changes without letters]GGGGSGGGGSGGGGSQVQLQQPGAELVRPGASVKLSCKASGYTFTSYWMNWVRQRPGQGLEWIGLIDPSDSETHYNQMFKDRATLTVDKSSSTAYMQLSSLTSADPAVYYCARASYGKGYFDYWGQGTTLTVSSGGSEGKSSGSGSESKSTGGSDIVMTQSPSSLAMSVGQKVTMSCKSSQSLLNNINQKNYLAWYQQKPGQSPKLLVYFASTRESGVPDRFIGSGSGTDFTLTINTVQAEDLADYFCQQHYSSPFTFGGGTKLEIK
heavy 2: EVRLLESGGGLVQPGGSLRLSCAASGFTFSNYAMGWVRQAPGKGLEWVSAISGSGGSTYYADSVKGRFTTSRDDSKNALYLQMNSLRAEDTAVYYCARGGPGWYAADVWGQGTTVTVSS[here human IgG1 constant region with changes without letters]
light: DIQMTQSPSSLSASVGDRVTITCRASQSISSYLNWYQQKPGKAPKLLIYAASSLQSGVPSRFSGSGSGTDFTLTISSLQPEDFATYYCQQADLPAFAFGGGTKVEIKRTVAAPSVFIFPPSDEQLKSGTASVVCLLNNFYPREAKVQWKVDNALQSGNSQESVTEQDSKDSTYSLSSTLTLSKADYEKHKVYACEVTHQGLSSPVTKSFNRGEC
notes: also called mouse CD98hc.04.064
Take B4: the “ELISA fold-change relative to isotype hIgG” value in assay [1] is 17.3; in assay [2] it was 26.5.
